Here are results for 115 sequences from the BET-seq Pho4 binding data (Le et al. 2018).

Some of the results follow. These are noisy estimates, calculated here from bound and input reads.

This test addresses T1, Pho4 (S. cerevisiae) (UniProt P07270).
T1 sequence: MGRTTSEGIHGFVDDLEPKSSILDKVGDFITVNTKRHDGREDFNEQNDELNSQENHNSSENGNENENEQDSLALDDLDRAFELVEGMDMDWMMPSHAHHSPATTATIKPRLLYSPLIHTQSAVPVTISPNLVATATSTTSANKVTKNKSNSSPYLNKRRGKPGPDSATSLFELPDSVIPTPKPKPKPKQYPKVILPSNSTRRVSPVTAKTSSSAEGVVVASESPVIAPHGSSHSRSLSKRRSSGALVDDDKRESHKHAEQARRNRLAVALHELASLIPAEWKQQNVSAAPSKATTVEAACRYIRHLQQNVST
Description: relative binding free energy (BET-seq); higher = weaker binding. Particulars: reference: library average.
Consider TGCGTCACGTGGTTGA, for which the “relative binding free energy” value was found to be 0.15 kcal/mol. Next, GGGGCCACGTGGCAGG: -0.22 kcal/mol; GTAAGCACGTGATATG: 0.17 kcal/mol; TAGTTCACGTGAGTTT: 0.43 kcal/mol. Take AGTTGCACGTGTACAT: the “relative binding free energy” value is -0.02 kcal/mol. The figure for TCATACACGTGTCGTT is 0.19 kcal/mol; for GTGTTCACGTGGGTAA it is 0.2 kcal/mol; for ATTGTCACGTGGAGTA it is 0.08 kcal/mol. GTGTTCACGTGATATA: the “relative binding free energy” value is 0.43 kcal/mol. The figure for ATGGGCACGTGAAGTG is 0.24 kcal/mol. Next, TTGCCCACGTGTGGGG: -0.1 kcal/mol.

As to GGGCGCACGTGGTTGA, the “relative binding free energy” value was -0.12 kcal/mol. GTTATCACGTGTTAGA: the “relative binding free energy” value was 0.15 kcal/mol.

Take ATTGTCACGTGTGAAA: the “relative binding free energy” value worked out at 0.25 kcal/mol.

In the case of TTATGCACGTGGCGAT, the “relative binding free energy” value is -0.06 kcal/mol. Take GGAGGCACGTGGTTAG: the “relative binding free energy” value is -0.11 kcal/mol.

Take ATTGTCACGTGACCTG: the “relative binding free energy” value stood at 0.18 kcal/mol.

Consider GTGGACACGTGCGCGG, for which the “relative binding free energy” value was -0.18 kcal/mol. Next, TGTAGCACGTGAGCGT: 0.1 kcal/mol; TGCGACACGTGGTGAG: -0.02 kcal/mol; AGAAACACGTGTTTTG: -0.01 kcal/mol. The figure for TTGTGCACGTGCCTTG is -0.09 kcal/mol; for GCTTGCACGTGAGTAT it is 0.2 kcal/mol; for GGGATCACGTGTAGGT it is 0.2 kcal/mol.

As for TCGGACACGTGGGTCA, the “relative binding free energy” value is -0.02 kcal/mol. For the sequence TTATCCACGTGATTTT, the “relative binding free energy” value turned out to be 0.04 kcal/mol.

For the sequence GCGTTCACGTGAGGAT, the “relative binding free energy” value turned out to be 0.63 kcal/mol. In the case of GATATCACGTGAGGTG, the “relative binding free energy” value turned out to be 0.45 kcal/mol. Turning to GTGTTCACGTGAATAC, the “relative binding free energy” value was 0.53 kcal/mol. Next, TATTACACGTGGGAGT: 0.02 kcal/mol; TTTAGCACGTGCCGTT: -0.04 kcal/mol. The figure for TTAGGCACGTGATACT is 0.01 kcal/mol; for TAGTCCACGTGTGGTA it is 0.05 kcal/mol; for AGGTTCACGTGTAGTA it is 0.29 kcal/mol. The figure for TATCACACGTGGTTGT is 0.07 kcal/mol; for TGAGGCACGTGATGAT it is -0.05 kcal/mol.

Turning to TTCGCCACGTGGTGGT, the “relative binding free energy” value is -0.1 kcal/mol.

In the case of GGAGTCACGTGAGTTG, the “relative binding free energy” value amounted to 0.38 kcal/mol. Regarding TATATCACGTGTGTGA, the “relative binding free energy” value came out at 0.13 kcal/mol.

GTGTTCACGTGATCGA: the “relative binding free energy” value stood at 0.42 kcal/mol.

For GCGGTCACGTGAACGT, the “relative binding free energy” value amounted to 0.43 kcal/mol.

For AAAGTCACGTGTGAGT, the “relative binding free energy” value was 0.13 kcal/mol.

Take GGGCACACGTGGTGCG: the “relative binding free energy” value was -0.05 kcal/mol. Next, AGTGCCACGTGTAGTG: -0.08 kcal/mol; CGGGACACGTGGTATG: -0.06 kcal/mol. Next, GGCGGCACGTGATTGA: 0.05 kcal/mol; AGATGCACGTGGTTGG: -0.1 kcal/mol.

For the sequence TTGTCCACGTGGTTGG, the “relative binding free energy” value worked out at 0.02 kcal/mol. The figure for TGCGACACGTGCGGTG is -0.05 kcal/mol; for TCAGGCACGTGGTGGG it is -0.2 kcal/mol; for TTGGTCACGTGCAAGG it is 0.11 kcal/mol. GAAATCACGTGGGGCG: the “relative binding free energy” value was 0 kcal/mol. Next, TGTGCCACGTGCGGAT: -0.12 kcal/mol; AGGGTCACGTGATCTG: 0.21 kcal/mol. Next, CTGAACACGTGGTGTT: 0 kcal/mol; TGTCGCACGTGTTGCA: -0.02 kcal/mol. With GATGGCACGTGCGGTG, the “relative binding free energy” value is -0.16 kcal/mol. Next, ATGCTCACGTGTGGTT: 0.19 kcal/mol; ATTTGCACGTGATGAG: 0.07 kcal/mol; GTTCACACGTGTAGGG: 0.23 kcal/mol. The figure for TCAGTCACGTGTGTGG is 0.03 kcal/mol; for CTGGTCACGTGGGCCA it is 0.21 kcal/mol; for CGTATCACGTGTTATG it is 0.01 kcal/mol.

For the sequence GGAGGCACGTGTGTCA, the “relative binding free energy” value was -0.12 kcal/mol. As for AAGGGCACGTGAGCTT, the “relative binding free energy” value is 0.08 kcal/mol. As to TCTGGCACGTGCTGTT, the “relative binding free energy” value was -0.08 kcal/mol. Next, GGGATCACGTGTGTTC: 0.25 kcal/mol; CAGGGCACGTGGAGGT: -0.07 kcal/mol; TAATGCACGTGCTGTT: -0.05 kcal/mol. As for AAAGTCACGTGGGACG, the “relative binding free energy” value turned out to be 0.05 kcal/mol. The figure for TTTATCACGTGGGGAG is 0.08 kcal/mol. Next, TGGTGCACGTGGCTCA: -0.02 kcal/mol.

As for TCAGTCACGTGTTTAT, the “relative binding free energy” value is 0.06 kcal/mol. The figure for GCTGTCACGTGTTCTT is 0.24 kcal/mol; for GTGGGCACGTGGTGCA it is -0.15 kcal/mol; for TGCATCACGTGGGATT it is -0.05 kcal/mol.

For GGGATCACGTGGACGG, the “relative binding free energy” value came to 0.17 kcal/mol. For the sequence TTGATCACGTGTGGGC, the “relative binding free energy” value turned out to be 0.2 kcal/mol. TCCGGCACGTGGAGGG: the “relative binding free energy” value was -0.07 kcal/mol. As to GGAGACACGTGGTTTG, the “relative binding free energy” value was determined as 0.02 kcal/mol. Next, TTGACCACGTGATTGT: 0.19 kcal/mol. The figure for ACTTGCACGTGTGGGT is -0.02 kcal/mol. The figure for CTGTACACGTGGAGGT is 0 kcal/mol; for ATGTTCACGTGGGGCC it is 0.18 kcal/mol. As to AGCGGCACGTGAGTGA, the “relative binding free energy” value was found to be 0.2 kcal/mol. For the sequence GTGGTCACGTGGCGTT, the “relative binding free energy” value is 0.03 kcal/mol. Next, TTTGTCACGTGCCGTG: -0.05 kcal/mol; TGGTACACGTGTTTTA: 0.11 kcal/mol. Consider TTGGACACGTGCTGTA, for which the “relative binding free energy” value is -0.04 kcal/mol. Next, GAAGTCACGTGAAGTG: 0.32 kcal/mol; TATAGCACGTGGGCAT: -0.17 kcal/mol. As for GTAAACACGTGGATGT, the “relative binding free energy” value is -0.02 kcal/mol. As to GTACTCACGTGAATGT, the “relative binding free energy” value turned out to be 0.31 kcal/mol. The figure for ACGTACACGTGGTTTT is 0.08 kcal/mol; for ATGTTCACGTGTCGTA it is 0.22 kcal/mol. In the case of ATGGGCACGTGAGGGT, the “relative binding free energy” value came to 0.19 kcal/mol.

Regarding GACGTCACGTGTATGG, the “relative binding free energy” value came out at 0.29 kcal/mol. CACGTCACGTGAGGGT: the “relative binding free energy” value was 0.12 kcal/mol.

For the sequence GATGGCACGTGTTATG, the “relative binding free energy” value is 0.09 kcal/mol.

As to GTTGGCACGTGTCATT, the “relative binding free energy” value came to 0.06 kcal/mol.

Turning to TAGTGCACGTGCCTGG, the “relative binding free energy” value is -0.19 kcal/mol.

With ATTTTCACGTGTGTGT, the “relative binding free energy” value amounted to 0.23 kcal/mol. The figure for TCTGGCACGTGCATGG is -0.19 kcal/mol.

GGGATCACGTGTTTTT: the “relative binding free energy” value stood at 0.34 kcal/mol. Next, TTGCTCACGTGCGGGG: 0.1 kcal/mol; TCGGGCACGTGGATGA: -0.12 kcal/mol. The figure for CTGGTCACGTGGTGGT is 0.01 kcal/mol; for CTGGGCACGTGGGGGG it is -0.23 kcal/mol; for TATTACACGTGTTGTT it is 0.17 kcal/mol. On to GTATGCACGTGTCGTA, for which the “relative binding free energy” value was found to be 0 kcal/mol. Next, GGGGACACGTGGATAA: 0.13 kcal/mol; TGTGTCACGTGTGTAG: 0.22 kcal/mol. The figure for AAATACACGTGTTAGT is -0.02 kcal/mol. For ATTTGCACGTGCGGTA, the “relative binding free energy” value was -0.03 kcal/mol. Next, AGCGGCACGTGTCGTT: 0.1 kcal/mol.
